Results from the supplement of paper PMC3334620.
Over roughly 33,000 sequences, “E-score (-0.5 to 0.5)” has its median near -0.013; the highest 2% begin near 0.3. The list shows a part of the results.

What follows are sequences tested against T1, Msn1 (UniProt P22148) (assay: PBM E-score (8-mer binding enrichment) (E-score (-0.5 to 0.5)); higher = stronger / more preferred TF binding; most listed sequences are background and not binding sites). Conditions: protein concentration: 200 nM; construct: GST-full length.
T1 sequence: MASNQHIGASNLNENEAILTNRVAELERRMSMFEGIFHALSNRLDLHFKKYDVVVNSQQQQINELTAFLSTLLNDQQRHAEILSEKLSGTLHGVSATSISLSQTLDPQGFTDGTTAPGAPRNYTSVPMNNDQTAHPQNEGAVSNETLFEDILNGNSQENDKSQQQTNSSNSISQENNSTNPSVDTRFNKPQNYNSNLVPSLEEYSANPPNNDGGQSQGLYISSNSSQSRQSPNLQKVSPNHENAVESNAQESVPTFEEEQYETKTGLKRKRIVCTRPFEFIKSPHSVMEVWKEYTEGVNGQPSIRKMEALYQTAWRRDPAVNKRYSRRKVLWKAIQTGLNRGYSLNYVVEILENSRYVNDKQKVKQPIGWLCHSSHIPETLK
Summary of the method: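 Yeast transcription factors, full-length or as DNA-binding domains, were expressed with a GST tag using PURExpress in vitro transcription/translation. At about 100-200 nM they were applied to universal all-10-mer Agilent arrays, double-stranded by primer extension on fresh or once-stripped slides. Fluorescent anti-GST detected bound protein, and masliner normalised the scans. E-scores for ungapped eight-base words, pooled with reverse complements, came from the Universal PBM Analysis Suite.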
With ATGATTCG the “PBM E-score” value was 0.00766. In the case of CCTTTCAC, the “PBM E-score” value is reported as -0.0327. With ATTGGCCG the “PBM E-score” value was -0.0555. CCTTGGCC was tested, and the “PBM E-score” value was -0.195. For CAACGCTC, the “PBM E-score” value was 0.00214. CAGAGGAG was tested, and the “PBM E-score” value was -0.212. GCGTTTCC was tested, and the “PBM E-score” value was -0.0276. With AGTCGTAG the “PBM E-score” value was -0.0802. With GCATATTA the “PBM E-score” value was 0.0109. AGTACTTC was tested, and the “PBM E-score” value was 0.0929. GCCCTGTA was tested, and the “PBM E-score” value was 0.00768. In the case of GTTTTCTA, the “PBM E-score” value is reported as 0.164. For ATAATCCG, the “PBM E-score” value was 0.0113. For GCAAAAAA, the “PBM E-score” value was 0.21. In the case of ATTCCGGA, the “PBM E-score” value is reported as 0.313. In the case of GAAAAAGA, the “PBM E-score” value is reported as 0.12. With GCGTTACA the “PBM E-score” value was -0.0849. With GCAGCAGA the “PBM E-score” value was -0.0193. ATCTGTGG was tested, and the “PBM E-score” value was -0.184. GCGCCACC was tested, and the “PBM E-score” value was -0.217. With GCGCGGGA the “PBM E-score” value was -0.119. For ATTTCATC, the “PBM E-score” value was 0.206. For TATAATGA, the “PBM E-score” value was 0.158. With CAGGAATC the “PBM E-score” value was 0.188. For CGTATCCC, the “PBM E-score” value was -0.0898. With AGAACCAG the “PBM E-score” value was -0.053. CGCACCAG was tested, and the “PBM E-score” value was -0.104. For ATTAAGTG, the “PBM E-score” value was 0.142. With GGTTCAAA the “PBM E-score” value was 0.0338. CAAAGTTC was tested, and the “PBM E-score” value was -0.0221. With CTTATTAA the “PBM E-score” value was 0.0849. For AGTATTCG, the “PBM E-score” value was -0.0863. For CAGGGCAG, the “PBM E-score” value was -0.154. For CATTGTGC, the “PBM E-score” value was 0.0753. For CGGCGGCC, the “PBM E-score” value was -0.198. For TACTAACA, the “PBM E-score” value was 0.216. GCCCATCC was tested, and the “PBM E-score” value was -0.28. For AATCGGCT, the “PBM E-score” value was 0.0696. For ACACCGCG, the “PBM E-score” value was -0.0655. CCTTATCA was tested, and the “PBM E-score” value was 0.115. GAACCGGC was tested, and the “PBM E-score” value was -0.08. In the case of CCTGTGAG, the “PBM E-score” value is reported as -0.143. In the case of ACATTCTC, the “PBM E-score” value is reported as 0.233. ACCCAGAC was tested, and the “PBM E-score” value was 0.0146. In the case of CAGGAGAA, the “PBM E-score” value is reported as -0.0516. With AATCCGTG the “PBM E-score” value was -0.135. With CGTGCGGA the “PBM E-score” value was -0.0311. In the case of CTAGGTTC, the “PBM E-score” value is reported as -0.0861. For GGTACACA, the “PBM E-score” value was 0.267. For CACAGATG, the “PBM E-score” value was -0.0665. AGTAGACT was tested, and the “PBM E-score” value was -0.0196. With GACGTTCC the “PBM E-score” value was -0.0725. For GAATACTA, the “PBM E-score” value was 0.105. With ATAGGTTA the “PBM E-score” value was -0.0136. In the case of GACGAGGC, the “PBM E-score” value is reported as -0.0771. TCTTCCAA was tested, and the “PBM E-score” value was 0.0213. With TAGCCACA the “PBM E-score” value was 0.12. In the case of AACACCTT, the “PBM E-score” value is reported as 0.0109. With AAACATCG the “PBM E-score” value was -0.12. In the case of CAGCATAA, the “PBM E-score” value is reported as 0.0378. In the case of CATAAAAA, the “PBM E-score” value is reported as 0.181. CCTAAATC was tested, and the “PBM E-score” value was 0.0761. GGATTCAA was tested, and the “PBM E-score” value was -0.0688. In the case of CGGTCCTA, the “PBM E-score” value is reported as -0.185. For TGGGGAAA, the “PBM E-score” value was -0.0201. In the case of ACATTGCT, the “PBM E-score” value is reported as 0.234. With CTTGTTGA the “PBM E-score” value was 0.0213. In the case of AATTCTAA, the “PBM E-score” value is reported as 0.0582. For CAATAATG, the “PBM E-score” value was -0.0285. In the case of GAAGACAA, the “PBM E-score” value is reported as 0.36. With TGAAGAAA the “PBM E-score” value was 0.104. For TCCTATAA, the “PBM E-score” value was 0.0275. GCCTAGAA was tested, and the “PBM E-score” value was -0.0236. For CTATCCGA, the “PBM E-score” value was 0.0185. In the case of CCACATCC, the “PBM E-score” value is reported as -0.178. For CAGACTGG, the “PBM E-score” value was -0.0288. ACATGTTG was tested, and the “PBM E-score” value was 0.235. In the case of CCAAATCC, the “PBM E-score” value is reported as -0.135. With GCGAGGGA the “PBM E-score” value was -0.159. In the case of ACATTTCC, the “PBM E-score” value is reported as 0.329. For GATTCAGC, the “PBM E-score” value was -0.127. In the case of GCCACGCC, the “PBM E-score” value is reported as -0.281. For ATAGCGTC, the “PBM E-score” value was -0.00515. For CTACAGGC, the “PBM E-score” value was -0.112. For CACTTCGA, the “PBM E-score” value was 0.0238. With CAAAAATA the “PBM E-score” value was 0.203. In the case of GGTTGTAC, the “PBM E-score” value is reported as -0.069. In the case of ATGAACGC, the “PBM E-score” value is reported as 0.037. For GTCGAAAC, the “PBM E-score” value was -0.0791. In the case of ACTGGCTC, the “PBM E-score” value is reported as -0.193. AATCAACG was tested, and the “PBM E-score” value was 0.032. With ACGTTCGC the “PBM E-score” value was -0.146. TATGGACA was tested, and the “PBM E-score” value was 0.476. For AGAACGGC, the “PBM E-score” value was 0.134. For CCATGAAC, the “PBM E-score” value was 0.0774. ATGTTAGC was tested, and the “PBM E-score” value was -0.103. In the case of AGTTGCAC, the “PBM E-score” value is reported as -0.0526. TAGTTAGA was tested, and the “PBM E-score” value was -0.0425. For ACTCAATC, the “PBM E-score” value was 0.017. With CAGGTGCG the “PBM E-score” value was -0.121. With AGTCGTGC the “PBM E-score” value was -0.132. With AGGTCCCC the “PBM E-score” value was -0.299. For GCGACCAC, the “PBM E-score” value was -0.08. With AGAACCGA the “PBM E-score” value was 0.119. With CACATCTA the “PBM E-score” value was 0.0157. With GTACCCAA the “PBM E-score” value was 0.0345. In the case of CAGAACCC, the “PBM E-score” value is reported as -0.195. With CTGCCCTC the “PBM E-score” value was -0.329. GACTAGTC was tested, and the “PBM E-score” value was 0.167. For AGTATACC, the “PBM E-score” value was -0.0263. In the case of AGACCGGC, the “PBM E-score” value is reported as -0.171. In the case of ATACATTA, the “PBM E-score” value is reported as 0.237. In the case of AGGCGACA, the “PBM E-score” value is reported as -0.106. For GATATGGA, the “PBM E-score” value was 0.205. With AGGTTCGG the “PBM E-score” value was -0.171. For ATCCGTGG, the “PBM E-score” value was -0.0752. For AATCCGAA, the “PBM E-score” value was -0.0636. For GCATTTCA, the “PBM E-score” value was 0.0826. In the case of CAGGGAAA, the “PBM E-score” value is reported as -0.0891. With AAGCTGGC the “PBM E-score” value was -0.0659. With CTCGCTGA the “PBM E-score” value was 0.0181. With GAACCGTA the “PBM E-score” value was -0.00356. In the case of CCGCAGCG, the “PBM E-score” value is reported as -0.133. GCGTAAAC was tested, and the “PBM E-score” value was -0.017. ATAAAACG was tested, and the “PBM E-score” value was 0.12. ACTTTGGC was tested, and the “PBM E-score” value was -0.0739. In the case of ACTATCGA, the “PBM E-score” value is reported as -0.0639. In the case of AGGGGTGA, the “PBM E-score” value is reported as -0.251. For CAAACGGG, the “PBM E-score” value was 0.0991. In the case of CCTCACAC, the “PBM E-score” value is reported as -0.187. For ACTACTGC, the “PBM E-score” value was -0.105. For GTTCCTAA, the “PBM E-score” value was -0.0399. In the case of GCATGAGA, the “PBM E-score” value is reported as 0.0319. With CCAACTCA the “PBM E-score” value was 0.0263. With ACATTGAC the “PBM E-score” value was 0.112. For CGAGCTCC, the “PBM E-score” value was -0.0327. GGCACAAC was tested, and the “PBM E-score” value was 0.0188. For CAAAGGTA, the “PBM E-score” value was -0.0158. With TGTTCCAA the “PBM E-score” value was 0.0356. For AGACGAAC, the “PBM E-score” value was 0.0373. For ACCAGGTC, the “PBM E-score” value was 0.0327. In the case of CTCTACAC, the “PBM E-score” value is reported as -0.231. In the case of ATCACACC, the “PBM E-score” value is reported as -0.0954. In the case of CATGTGGA, the “PBM E-score” value is reported as 0.199. For GGGCTCAC, the “PBM E-score” value was -0.317. With CTTGATCA the “PBM E-score” value was 0.138. For CAGACCGA, the “PBM E-score” value was -0.065. In the case of ACGAATCT, the “PBM E-score” value is reported as 0.0133. In the case of GCCACAAA, the “PBM E-score” value is reported as 0.133. In the case of CGATTCAA, the “PBM E-score” value is reported as 0.0184. AGGATATC was tested, and the “PBM E-score” value was -0.119. With AGTGTCCG the “PBM E-score” value was 0.179. With ATAGTCAC the “PBM E-score” value was -0.00405. In the case of GCTCTGAA, the “PBM E-score” value is reported as -0.119. For ATCCGGGA, the “PBM E-score” value was -0.0993. For ACGGTAAC, the “PBM E-score” value was -0.0431. In the case of AAGGTCCC, the “PBM E-score” value is reported as -0.0864. With ACCAAGGC the “PBM E-score” value was -0.117. For CGCAAACG, the “PBM E-score” value was 0.11. CAAACCGG was tested, and the “PBM E-score” value was -0.0828. For CGGCGCTA, the “PBM E-score” value was -0.124. In the case of GCAGATGA, the “PBM E-score” value is reported as -0.132. With CCTATGTA the “PBM E-score” value was -0.0586. For GTATAGAC, the “PBM E-score” value was 0.156. AGCAGGTA was tested, and the “PBM E-score” value was -0.0987. With CGATGAGA the “PBM E-score” value was 0.095. With AGGGTAAC the “PBM E-score” value was -0.177. CCTGCAAC was tested, and the “PBM E-score” value was -0.013. ATACAGGC was tested, and the “PBM E-score” value was -0.118. With ATTAAATA the “PBM E-score” value was 0.181. AGATGTAC was tested, and the “PBM E-score” value was 0.0525. With ATTATCAG the “PBM E-score” value was -0.106.
